Test results taken from US4649911A, “Small particle aerosol generator for treatment of respiratory disease including the lungs” (Baylor College of Medicine, priority 1986, dated 1987).
Read-outs that look alike come from different tables or passages of the source.

Assays:
[1] = mouse, in vivo; cited from earlier work
influenza A [2] = details: oral route; cited from earlier work
influenza B = details: in vivo; cited from earlier work
influenza A [3] = test system: influenza A
influenza A and B = details: mice; aerosol; treatment delayed as long as five days after inoculation; cited from earlier work
[4] = test system: influenza A/England/333/80 (H1N1) virus
[5] = test system: influenza A/Brazil/11/78 (H1N1); test: Hemagglutination-inhibition antibody response, H1N1 virus (Example 1); type: in vivo, human; details: treated versus control, P=0.084
[6] = test system: influenza A/England/333/80 (H1N1); type: in vivo, human
[7] = test system: influenza A/Bangkok/79(H3N2); type: in vivo, human
influenza = details: oral route; under some circumstances, with inconsistencies; cited from earlier work
influenza B virus = type: in vivo, human
[8] = test system: influenza A/England/333/80 (H1N1) virus; test: Virus titration in MDCK cells of virus added to nasal wash containing ribavirin; type: cell-based
[9] = not given; remark: listed apart in the source
[10] = test system: influenza A/Bangkok/1/79 (H3N2); test: Hemagglutination-inhibition antibody response, H3N2 virus (Example 1); type: in vivo, human; details: in convalescence, from 1:14 mean acute titer
[11] = not given; remark: listed apart in the source

NC12CC3CC(CC(C3)C1)C2 [Amantadine, amantadine]
estimated dosages in mice relative to man [1]: four-fold | effect on virus shedding (influenza A [2]): little effect on virus shedding | effectiveness in cases with pulmonary complications (influenza A [2]): not been very effective | effectiveness in influenza B infection (influenza B): not effective | therapeutic effect (influenza A [3]; […], three patients): apparent therapeutic effect | tolerance (influenza A [3]; human, in vivo): good tolerance | therapeutic effect when treatment delayed (influenza A and B): substantial therapeutic effect

NC(=O)c1ncn([C@@H]2O[C@H](CO)[C@@H](O)[C@H]2O)n1 [ribavirin]
ribavirin in post-treatment nasal wash specimens [4]: no significant amount of ribavirin was present | virus growth in post-treatment versus pre-treatment nasal wash specimens ([4]; all dilutions): almost identical virus growth | serologic response [5]: trend of greater serologic response | Mean retention (Day 0): 52 mg/h | Mean retention (Day 1): 50 mg/h | Mean retention (Day 2): 49.3 mg/h | retained fraction (human, in vivo): 0.7 | Mean retention (total): 51 mg/h | effectiveness and safety in influenza A/England/333/80 (H1N1) infection ([6]; Example 1, conclusion): demonstrates the effectiveness and safety | systemic illness, improvement ([6]; by next morning, less than 24 hours, P=0.004): improved greatly | local findings of rhinitis, pharyngitis and tracheobronchitis ([6]; day 2, less than 48 hours after admission): only a trend of less illness | Mean hours from admission to sustained afebrile state (37.4° C.) ([6]; treated N=14, control 38.1): 22.8 h | Mean Maximum Daily Temperature ([6]; treated, calendar day 0 (essentially pretreatment), N=14, control 39.2, NS): 39.4 °C | Systemic Illness, mean score ([6]; treated, calendar day 0, physician score 0 to 3+, N=14, control 2.56, NS): 2.64 | Rhinitis, pharyngitis, tracheobronchitis, mean score ([6]; treated, calendar day 0, score 0 to 3+, N=14, control 1.49, NS): 1.52 | Mean Maximum Daily Temperature ([6]; treated, calendar day 1, N=14, control 38.6, NS): 38.6 °C | Rhinitis, pharyngitis, tracheobronchitis, mean score ([6]; treated, calendar day 1, score 0 to 3+, N=14, control 1.31, NS): 1.31 | Systemic Illness, mean score ([6]; treated, calendar day 1, score 0 to 3+, N=14, control 2.18, P .004): 1.50 | Mean Maximum Daily Temperature ([6]; treated, calendar day 2, N=13, control 37.4, one-tailed t-statistic .003): 36.9 °C | Rhinitis, pharyngitis, tracheobronchitis, mean score ([6]; treated, calendar day 2, score 0 to 3+, N=12, control 1.14, P .07): 0.77 | Systemic Illness, mean score ([6]; treated, calendar day 2, score 0 to 3+, N=12, control 1.38, P .07): 1.0 | mean virus titer (virus shedding, nasal wash) ([6]; treated, highly significant at 18 hours after admission): rapid reduction in mean virus titer | recovery from severe influenza pneumonia and acute myocardial infarction ([7]; Example 2, conclusion): recovered promptly | clinical course of influenza pneumonia ([7]; human, in vivo): Improvement was steady and without complications | status at follow-up ([7]; one month later): well, having recovered from both myocardial infarction and influenzal pneumonia | hospital day of discharge ([7]; person, […]): fourteenth hospital day | therapeutic activity in influenza (influenza): has therapeutic activity | therapeutic effect when treatment delayed (influenza A and B): substantial therapeutic effect | defervescence (influenza B virus; in vivo): significantly more rapid defervescence | disappearance of systemic illness (influenza B virus; in vivo): significantly more rapid defervescence, disappearance of systemic illness | reduction of virus shedding in nasal secretions (influenza B virus; in vivo): reduction of virus shedding in nasal secretions | effectiveness in treatment of influenza B virus infection (influenza B virus; randomized, controlled study, FIG. 3 arrangement): effective | results of 50 μg/ml tests versus pre-treatment control specimens ([8]; 50 μg/ml in nasal wash): nearly identical with pre-treatment control specimens | inhibition of virus growth ([8]; 1:10 dilution, 500 μg/ml only): inhibited virus growth | effect of heat on ribavirin (heated versus unheated material in virus titration) ([8]; 65° C. for one-half hour versus room temperature, 50, 100, 500 μg/ml): nearly identical results | inhibition of virus growth ([8]; H1N1, 50 ug/mL): no inhibitory activity | inhibition of virus growth ([8]; higher dilutions): no drug effect was detected | inhibition of virus growth ([8]; undiluted specimens, 100 μg/ml and 500 μg/ml): Some inhibition of virus growth | hematologic and clinical chemical tests ([9]; Example 4): no toxicity | tolerance ([9]; Example 4): well tolerated | estimated dose of ribavirin aerosol retained ([9]; human, in vivo): about 2 g | rise in antibody titers to H3N2 virus [10]: no rise in titers | aerosol concentration of ribavirin ([11]; Example 2, 60% oxygen/40% air, 10 liters per minute): 180 µg/L | estimated retention factor ([11]; human, in vivo): 60% | ribavirin retained per hour ([11]; human, in vivo): 42 mg per hour | ribavirin retained, total ([11]; human, in vivo): about 2.5 grams
